# The other results are listed elsewhere or left out. The energies were worked out here from pooled read counts, against the library average; single values are noisy.
# Target: T1, Pho4 (S. cerevisiae) (UniProt P07270)
# T1 sequence: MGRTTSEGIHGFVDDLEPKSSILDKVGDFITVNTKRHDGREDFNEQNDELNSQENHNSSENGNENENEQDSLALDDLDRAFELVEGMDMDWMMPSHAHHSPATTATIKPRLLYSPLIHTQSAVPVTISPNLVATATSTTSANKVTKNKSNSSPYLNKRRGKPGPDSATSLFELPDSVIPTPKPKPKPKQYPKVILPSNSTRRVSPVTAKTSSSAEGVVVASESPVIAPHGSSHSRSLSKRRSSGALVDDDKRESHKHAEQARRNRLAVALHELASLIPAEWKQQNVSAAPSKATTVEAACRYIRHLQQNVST
# Assay: relative binding free energy (BET-seq); higher = weaker binding
# Details: reference: library average
row,Sequence,relative binding free energy [kJ/mol]
1,TGGAGCACGTGAGATG,0.879
2,CTAGTCACGTGTATAT,0.293
3,CTGGACACGTGAGGGG,0.251
4,TTCGGCACGTGGTCGT,-1.17
5,TGGTGCACGTGGGAAG,-0.377
6,TAGCGCACGTGGCAGG,-0.837
7,TGGGCCACGTGTGATT,-0.251
8,TTCGTCACGTGGGGAT,0.0418
9,TTTCTCACGTGTTCGG,1
10,TAAGTCACGTGTTTCG,0.209
11,TTTCTCACGTGCGGTA,0.795
12,AGTTTCACGTGCGTCT,0.962
13,TAGGTCACGTGTCGAA,0.628
14,AGTGTCACGTGGACTT,0.0418
15,GGGTGCACGTGTTTAC,-0.0418
16,TTGTGCACGTGTCCGT,-0.377
17,TCTGGCACGTGTTTGG,0.0837
18,ATGAACACGTGCGGTT,0.293
19,ATTCACACGTGAGTTT,1
20,TGCTGCACGTGAAGGA,0.837
21,ATCGTCACGTGGTCTG,-0.0418
22,ATAGTCACGTGGGTCT,0.0418
23,TGGAACACGTGATTTG,0.92

row,Sequence,relative binding free energy [kJ/mol]
1,TCGGACACGTGAGTGA,0.837
2,GATTGCACGTGTTCGA,0.711
3,TTTAGCACGTGTTTCG,-0.586
4,CATATCACGTGGGTTT,-0.502
5,GCGTTCACGTGTATAG,0.586
6,CTTTCCACGTGTGGTT,0.879
7,CATGTCACGTGTGATT,-0.0837
8,TTTCACACGTGTAGTG,0.837
9,CCAGTCACGTGTGGTA,1.13
10,CGGAACACGTGGGTTT,-0.753
11,TTTTACACGTGTTGGC,0.962
12,GATGCCACGTGGTATG,0.0837
13,CGAATCACGTGTGTGT,0.418
14,CGCGGCACGTGTTAGG,-0.628
15,GTATTCACGTGTGTGT,1.34
16,TAGGACACGTGGTGTC,-0.126
17,TCGTTCACGTGGGGAG,0.628
18,GGTTACACGTGGTTTC,-0.0418
19,TGGATCACGTGGGACT,0.418
20,CGGTACACGTGGGGAA,-0.209
21,GGTCGCACGTGAGGGT,1.34
22,AGGGTCACGTGAGGGC,0.669
23,ATGGTCACGTGAGATA,1.21

row,Sequence,relative binding free energy [kJ/mol]
1,AGGGGCACGTGGAGCG,-0.962
2,GATTGCACGTGTGCTA,0.628
3,CGTTTCACGTGCGTTT,0.502
4,ATTTGCACGTGAATGG,1.51
5,GTTATCACGTGTCGAG,1.09
6,TTGAACACGTGTATGA,0.126
7,GACATCACGTGTGGTG,0.711
8,AGTGCCACGTGCGGGG,-0.962
9,TTTATCACGTGTCTGC,1
10,GTGGTCACGTGGCTGC,0.126
11,TTGGTCACGTGACTCG,1.8
12,GAAGGCACGTGAACGG,0.962
13,ATGTGCACGTGTGGCA,-0.0837
14,TTTTCCACGTGGTTCT,0.335
15,ATGTCCACGTGGGGTT,-0.126
16,TCGGACACGTGTAAGG,0.879
17,GGGGCCACGTGTATAG,-0.126
18,GTGGTCACGTGTATTA,0.293
19,GGTTGCACGTGGTTGC,-0.0837
20,CCGTTCACGTGTTGGA,1.13
21,GAATTCACGTGTGATG,1.17
22,TTGGGCACGTGGAGCT,-0.628
23,GTGCGCACGTGTTGGA,-0.167

row,Sequence,relative binding free energy [kJ/mol]
1,CTGGACACGTGATTGG,0.251
2,TGGCTCACGTGGGAAG,0.795
3,TCGGTCACGTGTGTGA,-0.0418
4,GGCGACACGTGGTTTT,0.0418
5,TTTGACACGTGGCGAG,-0.167
6,TTTGTCACGTGAGGTG,1.09
7,TTACACACGTGGGGCT,-0.46
8,TGAATCACGTGTGGGG,0.711
9,TTGTGCACGTGTTGGC,0.167
10,CGCTTCACGTGGGTTG,0.418
11,GGATTCACGTGAAGAG,2.05
12,AGCGTCACGTGAGGCG,0.46
13,TCCTGCACGTGTAGGG,0.377
14,GGGAGCACGTGCCGGT,-0.795
15,ATGCGCACGTGTGGGG,0.0837
16,ACAAGCACGTGTGTGG,-0.251
17,CTGGTCACGTGGTTCA,0.837
18,GTATACACGTGTGAAG,0.418
19,GTAGTCACGTGTGGGG,0.92
20,GACATCACGTGGGGAG,0.377
21,AGAGGCACGTGTCGGA,-0.335
22,TGTCACACGTGCTTGT,0.126
23,TTGCTCACGTGCGTTG,0.795

row,Sequence,relative binding free energy [kJ/mol]
1,TGTGGCACGTGGTTGG,-0.251
2,AAATACACGTGAGGGT,0.251
3,TGTGGCACGTGATGGT,0
4,AGCAGCACGTGGGGAT,-1.09
5,GTCGGCACGTGGGGTG,-0.711
6,AAACGCACGTGAGGGT,1.21
7,AATTTCACGTGCGGTA,0.335
8,GGACGCACGTGGCTGG,-0.377
9,AAGGGCACGTGGCTGA,-0.92
10,TTAGACACGTGGCGGA,-0.126
11,TGATGCACGTGGATTA,0.377
12,ATGTCCACGTGATGTG,0.544
13,CATGTCACGTGATGAT,0.711
14,GATTGCACGTGGTTCG,0.46
15,ACAGGCACGTGCGGGG,-1.38
16,TCTGGCACGTGGGTCG,-0.92
17,ATAATCACGTGATTTC,2.3
18,GATAGCACGTGCGGTG,-0.209
19,GGCGCCACGTGGTTTG,-0.293
20,AAGAGCACGTGTGATA,0.335
21,TGTGGCACGTGCTGAT,-0.251
22,GTGAACACGTGATCGG,0.628
23,CGATTCACGTGTGTGA,1.88

# — the BET-seq Pho4 binding data (Le et al. 2018)
